Laboratory results: publication PMC9678772
Results are given in words; binding and its absence hold for the method and conditions named. In cells and extracts the contact can be indirect. Some binding calls cover weakened binding; strength is not graded here.

The chains behind the UniProt entries cited, without tags or fusion partners.
UniProt P84022: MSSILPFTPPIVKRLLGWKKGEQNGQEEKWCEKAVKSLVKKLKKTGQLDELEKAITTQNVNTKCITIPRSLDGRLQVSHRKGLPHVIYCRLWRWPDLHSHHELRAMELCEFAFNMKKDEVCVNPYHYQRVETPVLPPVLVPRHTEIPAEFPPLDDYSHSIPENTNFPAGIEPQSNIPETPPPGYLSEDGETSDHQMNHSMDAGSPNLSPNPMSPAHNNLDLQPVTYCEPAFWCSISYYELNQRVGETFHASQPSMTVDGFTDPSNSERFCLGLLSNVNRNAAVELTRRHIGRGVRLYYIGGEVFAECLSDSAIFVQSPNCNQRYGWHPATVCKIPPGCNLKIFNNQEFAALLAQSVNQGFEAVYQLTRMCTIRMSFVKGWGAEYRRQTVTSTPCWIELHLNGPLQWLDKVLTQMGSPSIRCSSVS
UniProt O15392: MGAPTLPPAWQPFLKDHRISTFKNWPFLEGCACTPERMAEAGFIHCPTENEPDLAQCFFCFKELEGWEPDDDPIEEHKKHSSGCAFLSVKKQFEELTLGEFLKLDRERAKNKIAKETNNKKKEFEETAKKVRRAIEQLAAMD
UniProt P01106: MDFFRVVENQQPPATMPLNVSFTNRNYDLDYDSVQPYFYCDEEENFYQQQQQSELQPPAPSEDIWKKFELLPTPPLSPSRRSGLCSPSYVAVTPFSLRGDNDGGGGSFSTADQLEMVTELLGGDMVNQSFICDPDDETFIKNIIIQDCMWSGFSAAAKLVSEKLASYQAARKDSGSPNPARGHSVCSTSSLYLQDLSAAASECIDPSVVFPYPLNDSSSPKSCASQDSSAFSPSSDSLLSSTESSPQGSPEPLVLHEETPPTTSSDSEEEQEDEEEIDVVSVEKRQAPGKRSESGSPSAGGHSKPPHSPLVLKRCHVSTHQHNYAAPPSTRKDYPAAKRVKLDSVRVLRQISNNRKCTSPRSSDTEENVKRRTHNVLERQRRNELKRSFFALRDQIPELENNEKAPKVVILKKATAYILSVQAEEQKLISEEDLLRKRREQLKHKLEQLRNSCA
UniProt P05412: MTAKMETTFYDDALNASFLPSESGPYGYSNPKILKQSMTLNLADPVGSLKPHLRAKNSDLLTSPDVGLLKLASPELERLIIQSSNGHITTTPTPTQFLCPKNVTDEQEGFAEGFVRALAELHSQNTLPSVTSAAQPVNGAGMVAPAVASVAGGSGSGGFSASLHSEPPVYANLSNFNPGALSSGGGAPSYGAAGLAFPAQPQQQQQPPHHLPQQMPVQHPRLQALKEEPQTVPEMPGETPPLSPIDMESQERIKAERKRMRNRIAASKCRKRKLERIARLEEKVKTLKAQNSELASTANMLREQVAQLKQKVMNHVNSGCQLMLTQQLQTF

T1: interferon regulatory factor 1 (IRF1) (human (endogenous in THP1)) (UniProt P10914)
T1 sequence: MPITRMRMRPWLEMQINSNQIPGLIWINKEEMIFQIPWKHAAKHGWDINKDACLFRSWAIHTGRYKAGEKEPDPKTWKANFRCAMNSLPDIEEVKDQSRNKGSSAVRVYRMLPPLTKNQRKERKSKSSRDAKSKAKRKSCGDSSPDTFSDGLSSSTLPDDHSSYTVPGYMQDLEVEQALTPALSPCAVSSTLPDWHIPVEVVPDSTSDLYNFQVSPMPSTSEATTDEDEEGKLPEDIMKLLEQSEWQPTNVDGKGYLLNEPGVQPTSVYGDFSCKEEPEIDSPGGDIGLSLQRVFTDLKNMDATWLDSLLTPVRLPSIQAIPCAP

B1: interferon regulatory factor 1 (IRF1) (protein, UniProt P10914 1-325)
chain: T1 sequence
B2: IRF8 (protein, UniProt Q02556 1-426)
chain: MCDRNGGRRLRQWLIEQIDSSMYPGLIWENEEKSMFRIPWKHAGKQDYNQEVDASIFKAWAVFKGKFKEGDKAEPATWKTRLRCALNKSPDFEEVTDRSQLDISEPYKVYRIVPEEEQKCKLGVATAGCVNEVTEMECGRSEIDELIKEPSVDDYMGMIKRSPSPPEACRSQLLPDWWAQQPSTGVPLVTGYTTYDAHHSAFSQMVISFYYGGKLVGQATTTCPEGCRLSLSQPGLPGTKLYGPEGLELVRFPPADAIPSERQRQVTRKLFGHLERGVLLHSSRQGVFVKRLCQGRVFCSGNAVVCKGRPNKLERDEVVQVFDTSQFFRELQQFYNSQGRLPDGRVVLCFGEEFPDMAPLRSKLILVQIEQLYVRQLAEEAGKSCGAGSVMQAPEEPPPDQVFRMFPDICASHQRSFFRENQQITV
B3: JUND (protein, UniProt P17535 1-347)
chain: METPFYGDEALSGLGGGASGSGGSFASPGRLFPGAPPTAAAGSMMKKDALTLSLSEQVAAALKPAAAPPPTPLRADGAPSAAPPDGLLASPDLGLLKLASPELERLIIQSNGLVTTTPTSSQFLYPKVAASEEQEFAEGFVKALEDLHKQNQLGAGAAAAAAAAAAGGPSGTATGSAPPGELAPAAAAPEAPVYANLSSYAGGAGGAGGAATVAFAAEPVPFPPPPPPGALGPPRLAALKDEPQTVPDVPSFGESPPLSPIDMDTQERIKAERKRLRNRIAASKCRKRKLERISRLEEKVKTLKSQNTELASTASLLREQVAQLKQKVLSHVNSGCQLLPQHQVPAY

How the values were obtained:
[1] = molecular target: SMAD3 (human (endogenous in THP1)) (UniProt P84022); assay: co-IP; reciprocal IP of endogenous IRF1 (sc74530) or SMAD3 (sc101154) from THP1 nuclear extract on Dynabeads Protein G, cross-linking with bis(sulfosuccinimidyl)suberate; control IP with mouse IgG; Western blot for survivin
[2] = molecular target: T1, interferon regulatory factor 1 (IRF1) (human (endogenous in THP1)); assay: as above
[3] = molecular target: survivin (human (endogenous in THP1)) (UniProt O15392); assay: co-IP; IP of endogenous survivin from THP1 nuclear extract with monoclonal rabbit anti-human survivin (ab192675) on Dynabeads Protein G, cross-linking with bis(sulfosuccinimidyl)suberate; nuclei lysed in modified RIPA (Tris-HCl pH 7.4 25 mM, NaCl 200 mM, EDTA 1 mM, Nonidet P-40 1%, glycerol 5%); control IP with rabbit IgG; Western blot of the precipitate

Molecule | binding [1] | binding [2] | binding [3]
survivin (from UniProt O15392 1-142) | binds | binds | 
c-MYC (from UniProt P01106 1-454) |  |  | no binding
JUN (from UniProt P05412 1-331) |  |  | no binding
SMAD3 (from UniProt P84022 1-425) |  |  | binds
B1 |  |  | binds
B2 |  |  | no binding
B3 |  |  | no binding
